Source: patent US11707533B2, “Antibody-drug conjugate comprising antibody against human ROR1 and use for the same” (LegoChem Biosciences, Inc., priority 2019, dated 2023)

Experiments:
[1] = target: T1, recombinant human ROR1-Fc (Homo sapiens, UniProt Q01973); assay: Monoclonal phage antibody (scFv) screening ELISA on ROR1-Fc; format: binding; conditions: monoclonal phage scFv supernatant
T1 construct: made in house; host or cells: HEK 293E
Method: Thereafter, the ELISA method was used as follows to select clones expressing monoclonal soluble scFv binding to ROR1-Fc antigen (Steinberger Rader and Barbas III 2000 Phage display vectors In: Phage Display Laboratory Manual 1sted Cold Spring Harbor Laboratory Press NY USA pp 119-1112). Specifically, 100 ng per well of recombinant human ROR1-Fc prepared in Embodiment 1-1 or FBMA-Fc was placed in a 96-well microtiter plate (Nunc-Immuno Plate, NUNC, USA), which was coated overnight at 4° C. BCMA-Fc is the protein used as a negative control, a recombinant protein where the extracellular domain of human BCMA protein is linked to human Fc. 200 μL each of 3% BSA was placed in each well, and blocked for 2 hours at 37° C.
The monoclonal phage supernatant was prepared by mixing 1:1 with 3% BSA, and 100 μL each of this mixture was loaded into the wells and reacted for 2 hours at 37° C. After washing 5 times with 300 μL PBST, anti-HA HRP binding antibody was added, reacted for 1 hour at 37° C., then washed 5 times with PBST. 100 μL TMB (Tetramethylbenzidine, Sigma, T0440) was added for color development, and then 50 μL 1N H2SO4 was added to stop the reaction. Absorbance was measured at 450 nm and 650 nm, and clones where the absorbance at 450 nm and 650 nm was 10 or higher when coated with 1 ? /mL ROR1 were screened (FIG. 1)

[2] = target: T2, cell surface-expressed ROR1 (JeKo-1 cell line) (Homo sapiens, UniProt Q01973); assay: Monoclonal phage antibody (scFv) flow cytometry on JeKo-1; format: binding; conditions: monoclonal scFv supernatant
T2 construct: reacted with a cell line (JeKo-1) overexpressing ROR1; endogenous in cells; host or cells: JeKo-1
T2 sequence (Q01973 30-937): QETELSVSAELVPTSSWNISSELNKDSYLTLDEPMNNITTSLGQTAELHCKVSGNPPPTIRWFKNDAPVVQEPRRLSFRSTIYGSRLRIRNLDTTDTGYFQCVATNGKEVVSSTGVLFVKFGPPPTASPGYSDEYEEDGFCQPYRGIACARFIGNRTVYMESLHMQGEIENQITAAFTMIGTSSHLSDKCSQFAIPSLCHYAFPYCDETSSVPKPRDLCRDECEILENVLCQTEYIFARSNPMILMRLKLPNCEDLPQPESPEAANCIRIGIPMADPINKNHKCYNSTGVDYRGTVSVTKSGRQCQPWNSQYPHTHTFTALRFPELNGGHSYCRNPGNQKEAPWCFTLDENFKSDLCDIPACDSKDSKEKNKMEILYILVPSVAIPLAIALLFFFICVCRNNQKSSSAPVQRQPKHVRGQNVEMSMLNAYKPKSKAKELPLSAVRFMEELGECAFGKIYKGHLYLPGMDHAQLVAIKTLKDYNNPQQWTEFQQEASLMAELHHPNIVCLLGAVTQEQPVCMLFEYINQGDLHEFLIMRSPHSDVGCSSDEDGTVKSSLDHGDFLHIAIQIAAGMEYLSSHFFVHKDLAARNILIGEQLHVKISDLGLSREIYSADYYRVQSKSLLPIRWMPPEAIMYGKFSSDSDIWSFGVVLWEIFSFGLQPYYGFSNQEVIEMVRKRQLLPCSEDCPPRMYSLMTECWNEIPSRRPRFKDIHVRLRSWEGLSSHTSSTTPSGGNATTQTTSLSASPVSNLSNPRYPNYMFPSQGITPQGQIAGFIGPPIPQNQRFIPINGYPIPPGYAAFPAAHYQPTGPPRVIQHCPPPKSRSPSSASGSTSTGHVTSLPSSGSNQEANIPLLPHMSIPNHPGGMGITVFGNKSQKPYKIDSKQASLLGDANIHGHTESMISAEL
Method: Next, flow cytometry was used to screen clones binding to cell lines expressing ROR1. Specifically, 100 ? of the monoclonal scFv supernatant was reacted with a cell line (JeKo-1) overexpressing ROR1, then washed two times with PBS. After reacting with anti-HA-FITC antibody (Sigma, H7411) at 4° C. for 30 minutes, and washing twice with PBS then suspending in 200 ? PBS, a FACSCalibur flow cytometer (BD Bioscience) was used to screen clones binding to the JeKo-1 cell line (FIG. 2)

[3] = target: T3, recombinant human ROR1-His (Homo sapiens, UniProt Q01973); assay: Octet measurement of affinity of anti-ROR1 IgG antibody to ROR1; format: binding; conditions: 1:1 fitting, 30° C.
T3 construct: purchased Sino Biological 13968-H08H
T3 sequence (Q01973 30-406 limits assumed): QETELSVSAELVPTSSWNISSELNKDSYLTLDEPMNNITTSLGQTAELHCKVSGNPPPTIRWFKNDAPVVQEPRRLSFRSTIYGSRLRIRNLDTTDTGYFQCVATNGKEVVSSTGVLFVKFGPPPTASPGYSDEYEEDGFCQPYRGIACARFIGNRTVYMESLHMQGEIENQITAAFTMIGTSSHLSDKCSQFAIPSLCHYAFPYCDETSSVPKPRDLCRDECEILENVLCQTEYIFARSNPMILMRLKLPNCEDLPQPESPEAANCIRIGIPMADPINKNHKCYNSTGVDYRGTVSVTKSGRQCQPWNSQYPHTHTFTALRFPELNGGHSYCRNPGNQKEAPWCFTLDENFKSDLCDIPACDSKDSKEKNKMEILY
Method: A 96-well black microplate (greiner bio one) was mounted on a biosensor tray case, and 200 ? 10×KB or DW was added to each of 8 wells. Then Anti Penta His biosensors or 8 AR2G biosensors (ForteBio, USA) were inserted to hydrate for 10 minutes. 600 ? of the assay samples were diluted 2-fold or 3-fold to the appropriate assay concentrations, using 1×KB or 10×KB to 30 to 0.021 nM. To immobilize the antigen, recombinant human ROR1-His (Sino Biological, 13968-H08H) was diluted to 1 ? /ML with 10×KB or Sodium Acetate pH5 buffer. Immobilization was fixed at a threshold of 0.3 nm in the loading step. The association assay was carried out for 3 to 10 minutes, and the dissociation assay was carried out for 20 minutes. According to the Octet program template, the buffer was placed in a new 96-well black microplate according to order. As Baseline1, 200 ? 10×KB or DW was placed. Then 200 ? each of 1 ? /mL of the antigen to be loaded, the ROR1-HIS protein, was added. As Baseline2, 200 ? 10×KB or 1×KB was placed. Then to each well 30 to 0.021 nM of the diluted antibody and 200 ? each of 10×KB buffer or 1×KB corresponding to a reference blank was added. The temperature of the test plate was fixed at 30° C. After all of the samples were introduced, the equipment was started, and after the assay was completed, results were uploaded to the Octet Analysis 90 software, with KD values analyzed through 1:1 fitting. By obtaining KD values through the Octet assay method, it was confirmed that the anti-ROR1 antibody had strong binding potential to ROR1 antigen.

[4] = tested on: human mantle cell lymphoma cell line JeKo-1; assay: Cancer growth suppression efficacy of anti-ROR1 IgG antibody in mouse tumor xenograft model; format: in vivo; conditions: Day 16; 10 mg/kg peritoneally twice a week, 5 administrations; JeKo-1 xenograft in SCID mice
Method: Human cancer xenograft mice were prepared by transplanting 1×10^7 cells/head of the ROR1-expressing human mantle cell lymphoma cell line JeKo-1 to severe combined immunodeficiency mice (SCID). After xenograft, when tumor size reached 170 mm^3 on average (Day 1), the mice were divided into groups, and 5 types of anti-ROR-1 antibody were peritoneally injected into the mice using a 1 mL syringe twice a week at 10 mg/kg for a total of 5 administrations (Days 1, 4, 7, 10 and 14). The negative control group was peritoneally administered 10 mg/kg each of human IgG1 (InVivoPlus human IgG1 isotype control, BioXCell, BP0297) having a structure similar to that of ROR-1 antibody twice a week for a total of 5 administrations. The size of the tumors grafted to the mice and the weight of the mice were measured immediately before initial administration (Day 1), immediately before administration on each administration date thereafter, and at two days after final administration (Day 16).

T1 sequence (Q01973 30-406): as the sequence (Q01973 30-406 limits assumed) above

binding to recombinant human ROR1 protein [1] | binding to cell lines expressing ROR1 [2] | koff [3] [s⁻¹] | kon [3] [M⁻¹ s⁻¹] | Molecule | % tumor growth inhibition (% TGI) compared to the human IgG1 antibody (HuIgG1) negative control [4] [%]
binding | binding |  |  | BA6 M1: anti-ROR1 antibody clone, VH SEQ ID NO 99, VL SEQ ID NO 54; IgG chains SEQ ID NOs 101 and 70 (antibody) heavy: EVQLLESGGGLVQPGGSLRLSCAASGFTFSNYDMSWVRQAPGKGLEWVSAIYHSGSSKYYADSVKGRFTISRDNSKNTLYLQMNSLRAEDTAVYYCARGGNAAWDTGFDYWGQGTLVTVSS[human IgG1 constant region not printed] light: QSVLTQPPSASGTPGQRVTISCSGSSSNIGSNDVSWYQQLPGTAPKLLIYYDNNRPSGVPDRFSGSKSGTSASLAISGLRSEDEADYYCGAWDDSLSGYVFGGGTKLTVLGQPKAAPSVTLFPPSSEELQANKATLVCLISDFYPGAVTVAWKADSSPVKAGVETTTPSKQSNNKYAASSYLSLTPEQWKSHRSYSCQVTHEGSTVEKTVAPAECS | 
binding | binding | 0.000361 | 450000 | D2B12: anti-ROR1 antibody clone, VH SEQ ID NO 50, VL SEQ ID NO 58; IgG chains SEQ ID NOs 66 and 74 (antibody) heavy: EVQLLESGGGLVQPGGSLRLSCAASGFTFSNYDMSWVRQAPGKGLEWVSSISPSSGSSIYYADSVKGRFTISRDNSKNTLYLQMNSLRAEDTAVYYCAKAPGWCQAPSCYYDNAMDVWGQGTLVTVSS[human IgG1 constant region not printed] light: QSVLTQPPSASGTPGQRVTISCSGSSSNIGNNDVSWYQQLPGTAPKLLIYDDSQRPSGVPDRFSGSKSGTSASLAISGLRSEDEADYYCGAWDDSLSGYVFGGGTKLTVLGQPKAAPSVTLFPPSSEELQANKATLVCLISDFYPGAVTVAWKADSSPVKAGVETTTPSKQSNNKYAASSYLSLTPEQWKSHRSYSCQVTHEGSTVEKTVAPAECS | 
binding | binding | 0.000338 | 2.23e+06 | DG6: anti-ROR1 antibody clone, VH SEQ ID NO 49, VL SEQ ID NO 57; IgG chains SEQ ID NOs 65 and 73 (antibody) heavy: EVQLLESGGGLVQPGGSLRLSCAASGFTFSDYDMSWVRQAPGKGLEWVSVISPDGGSIYYADSVKGRFTISRDNSKNTLYLQMNSLRAEDTAVYYCARDVVECNMNPCSYDNAMDVWGQGTLVTVSS[human IgG1 constant region not printed] light: QSVLTQPPSASGTPGQRVTISCSGSSSNIGSNYVSWYQQLPGTAPKLLIYDDSHRPSGVPDRFSGSKSGTSASLAISGLRSEDEADYYCGAWDDSLSGYVFGGGTKLTVLGQPKAAPSVTLFPPSSEELQANKATLVCLISDFYPGAVTVAWKADSSPVKAGVETTTPSKQSNNKYAASSYLSLTPEQWKSHRSYSCQVTHEGSTVEKTVAPAECS | 
binding | binding | 3.31e-05 | 1.38e+06 | A2F3: anti-ROR1 antibody clone, VH SEQ ID NO 45, VL SEQ ID NO 53; IgG chains SEQ ID NOs 61 and 69 (antibody) heavy: EVQLLESGGGLVQPGGSLRLSCAASGFTFSSYDMSWVRQAPGKGLEWVSWISPGGGSKYYADSVKGRFTISRDNSKNTLYLQMNSLRAEDTAVYYCARVNGRFDYWGQGTLVTVSS[human IgG1 constant region not printed] light: QSVLTQPPSASGTPGQRVTISCSGSSSNIGNNNVSWYQQLPGTAPKLLIYADSHRPSGVPDRFSGSKSGTSASLAISGLRSEDEADYYCATWDYSLSGYVFGGGTKLTVLGQPKAAPSVTLFPPSSEELQANKATLVCLISDFYPGAVTVAWKADSSPVKAGVETTTPSKQSNNKYAASSYLSLTPEQWKSHRSYSCQVTHEGSTVEKTVAPAECS | 
binding | binding |  |  | A2F2 M1: anti-ROR1 antibody clone, VH SEQ ID NO 98, VL SEQ ID NO 52; IgG chains SEQ ID NOs 100 and 68 (antibody) heavy: EVQLLESGGGLVQPGGSLRLSCAASGFTFSDYYMSWVRQAPGKGLEWVSSISPDASNTYYADSVKGRFTISRDNSKNTLYLQMNSLRAEDTAVYYCAKNLRAFDYWGQGTLVTVSS[human IgG1 constant region not printed] light: QSVLTQPPPASGTPGQRVTISCSGSSSNIGSNTVYWYQQLPGTAPKLLIYANSQRPSGVPDRFSGSKSGTSASLAISGLRSEDEADYYCGSWDYSLSGYVFGGGTKLTVLGQPKAAPSVTLFPPSSEELQANKATLVCLISDFYPGAVTVAWKADSSPVKAGVETTTPSKQSNNKYAASSYLSLTPEQWKSHRSYSCQVTHEGSTVEKTVAPAECS | 
binding | binding | 0.000119 | 1.53e+06 | A2F2: anti-ROR1 antibody clone, VH SEQ ID NO 44, VL SEQ ID NO 52; IgG chains SEQ ID NOs 60 and 68 (antibody) heavy: EVQLLESGGGLVQPGGSLRLSCAASGFTFSDYYMSWVRQAPGKGLEWVSSISPDGSNTYYADSVKGRFTISRDNSKNTLYLQMNSLRAEDTAVYYCAKNLRAFDYWGQGTLVTVSS[human IgG1 constant region not printed] light: QSVLTQPPPASGTPGQRVTISCSGSSSNIGSNTVYWYQQLPGTAPKLLIYANSQRPSGVPDRFSGSKSGTSASLAISGLRSEDEADYYCGSWDYSLSGYVFGGGTKLTVLGQPKAAPSVTLFPPSSEELQANKATLVCLISDFYPGAVTVAWKADSSPVKAGVETTTPSKQSNNKYAASSYLSLTPEQWKSHRSYSCQVTHEGSTVEKTVAPAECS | 289
